{
  "source": "PubChem BioAssay AID1030",
  "about": "(National Center for Advancing Translational Sciences (NCATS), 2008)",
  "note": "The whole screen tested about 220,000 compounds, of which about 16,000 (7.3%) were called active. The inconclusive results got no clear call from the source; some entries with a clear call stand among them for comparison. Calls come from the whole dose curve; as a rule, active = well fitted inhibition curve with a large enough effect (not every such curve was filed as active); inconclusive = small, poorly fitted or top-dose-only effect, or another doubt; inactive = no such curve, though single readings can be large or run the other way. No potency is given beside an inconclusive call; the fits are too rough. Potency is the fitted concentration of half-maximal effect; tags give direction and shape of the fitted curve.",
  "data": [
    {"molecular_target": "Aldehyde dehydrogenase 1A1 (Homo sapiens) (UniProt P00352)", "sequence (P00352 whole entry, looked up)": "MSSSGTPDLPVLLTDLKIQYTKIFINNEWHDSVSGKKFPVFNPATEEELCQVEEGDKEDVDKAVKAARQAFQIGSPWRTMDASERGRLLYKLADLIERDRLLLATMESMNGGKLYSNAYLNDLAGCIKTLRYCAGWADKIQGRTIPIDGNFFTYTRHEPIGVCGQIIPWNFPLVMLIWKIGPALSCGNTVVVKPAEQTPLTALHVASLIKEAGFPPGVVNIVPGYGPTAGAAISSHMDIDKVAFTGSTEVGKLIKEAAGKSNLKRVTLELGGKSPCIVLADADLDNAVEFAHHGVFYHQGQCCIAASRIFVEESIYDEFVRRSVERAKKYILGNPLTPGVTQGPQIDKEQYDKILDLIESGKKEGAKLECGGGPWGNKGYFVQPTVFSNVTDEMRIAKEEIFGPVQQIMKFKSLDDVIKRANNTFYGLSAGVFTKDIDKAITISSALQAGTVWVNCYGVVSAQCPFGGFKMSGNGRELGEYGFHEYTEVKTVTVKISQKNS", "test": "qHTS Assay for Inhibitors of Aldehyde Dehydrogenase 1 (ALDH1A1);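 for activity, negative = inhibition: plate controls were no enzyme wells and a reference inhibitor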", "details": "Purified ALDH1A1, NADH fluorescence, propionaldehyde substrate; series mostly up to 75.3 µM; activity, negative = inhibition: at the top concentration", "values": [
      {"smiles": "COc1ccc(/C=N/NC(=O)c2ccc(Cl)cc2)cc1Cn1cc(Cl)cn1", "Potency": "inconclusive [inhibitor, single point]"},
      {"smiles": "Cc1ccc(C(=O)N/N=C\\c2ccc(-c3ccc(Cl)c(Cl)c3)o2)cn1", "Potency": "inconclusive [inhibitor, single point]"},
      {"smiles": "O=C(O)CSc1nnc(CNc2cccc(C(F)(F)F)c2)n1Cc1ccco1", "Potency": "inconclusive [inhibitor, single point]"},
      {"smiles": "O=C(CS(=O)(=O)Cc1ccccc1)Nc1ccc(Cl)cn1", "activity, negative = inhibition": "inactive: -0.0817%"},
      {"smiles": "NNc1nnc(NN)c2ccccc12", "Potency": "inconclusive [inhibitor, single point]"},
      {"smiles": "O=C(CN1CCCC1=O)NC1C2CC3CC(C2)CC1C3", "note": "(stereo unspecified)", "activity, negative = inhibition": "inactive: 2.47%"},
      {"smiles": "Cn1c(=O)c2c(-c3ccccc3)n(C3CCCCC3)cc2n(C)c1=O", "Potency": "inconclusive [inhibitor, partial curve]"},
      {"smiles": "O=c1cc(Nc2ccc3c(c2)OCCO3)[nH]c(=O)n1-c1ccc(Cl)cc1", "activity, negative = inhibition": "inactive: 5.92%"},
      {"smiles": "O=C(CN1CCOCC1)Nc1ccc(S(=O)(=O)NC2CCCCC2)cc1", "Potency": "inconclusive [inhibitor, single point]"},
      {"smiles": "CC(=O)c1cccc(NC(=O)c2ccc3c(=O)n4c(nc3c2)CCCCC4)c1", "Potency": "active: 5.01 µM"},
      {"smiles": "O=[N+]([O-])c1cccc(C(=S)N2CCN(c3ccccc3)CC2)c1", "Potency": "active: 15.8 µM"},
      {"smiles": "O=C(COc1ccccc1C(=O)O)Nc1ccc(SC(F)F)cc1", "activity, negative = inhibition": "inactive: 4.84%"},
      {"smiles": "COc1ccccc1NC(=O)N(Cc1ccco1)Cc1cc2cccc(C)c2[nH]c1=O", "Potency": "inconclusive [inhibitor, single point]"},
      {"smiles": "O=C1NC(=S)S/C1=C1\\Sc2ccccc2N1CCCS(=O)(=O)O", "Potency": "active: 25.1 µM"},
      {"smiles": "CCCCNc1nnc(SCC(=O)N2CCN(S(=O)(=O)c3ccc4ccccc4c3)CC2)s1", "Potency": "inconclusive [inhibitor, single point]"},
      {"smiles": "Cc1nc2cc(C(=O)OCC(=O)NC34CC5CC(CC(C5)C3)C4)ccc2n1-c1ccccc1", "Potency": "inconclusive [inhibitor, partial curve]"},
      {"smiles": "CCc1cc(C(=O)OC)c(NC(=O)C2CC(=O)NN2Cc2ccccc2)s1", "note": "(stereo unspecified)", "activity, negative = inhibition": "inactive: -0.725%"},
      {"smiles": "Cc1ccc(C2(CCNCc3ccc(N(C)C)cc3)CCOC(C(C)C)C2)cc1", "note": "(stereo unspecified)", "Potency": "active: 25.1 µM"},
      {"smiles": "COCCCNC(=O)c1ccc(N2CCOCC2)c(NS(=O)(=O)c2ccc(OC)cc2)c1", "Potency": "inconclusive [inhibitor, single point]"},
      {"smiles": "CCc1cc2c(=O)c(-c3cnn(-c4ccccc4)c3)c(C)oc2c(CN2CCCCC2)c1O", "Potency": "inconclusive [inhibitor, partial curve]"},
      {"smiles": "CN(C)CCNc1ccc(-c2nn(C)c(=O)c3ccccc23)cc1[N+](=O)[O-]", "activity, negative = inhibition": "inactive: 0.247%"},
      {"smiles": "Cc1c(NS(=O)(=O)c2ccc(N(C)C3CCCCC3)c([N+](=O)[O-])c2)c(=O)n(-c2ccccc2)n1C", "Potency": "inconclusive [inhibitor, single point]"},
      {"smiles": "COCCNC(=S)NN(c1ccccc1)c1ccccc1", "Potency": "active: 31.6 µM"},
      {"smiles": "Cc1cccc(C)c1OCC(=O)Nc1cccc(-c2nnc(-c3ccccc3)o2)c1", "Potency": "inconclusive [inhibitor, partial curve]"},
      {"smiles": "CC1(C)Cc2nc3oc4c(N5CCOCC5)ncnc4c3cc2CO1", "Potency": "inconclusive [inhibitor, full curve]"},
      {"smiles": "CCOc1ccc(C(=O)NCCCN2CCOCC2)cc1OCC", "activity, negative = inhibition": "inactive: -7.28%"},
      {"smiles": "O=C(c1cc([N+](=O)[O-])ccc1N1CCN(S(=O)(=O)c2ccc(Cl)c(Cl)c2)CC1)N1CCOCC1", "Potency": "inconclusive [inhibitor, single point]"},
      {"smiles": "COc1ncc2nc(-c3cc(F)cc(F)c3)c(=O)n(Cc3cccs3)c2n1", "Potency": "inconclusive [inhibitor, single point]"},
      {"smiles": "Nc1c(C(=O)Nc2ccc(F)cc2)nnn1-c1cccc(C(F)(F)F)c1", "activity, negative = inhibition": "inactive: -8.81%"},
      {"smiles": "O=C(NCc1ccccn1)c1ccc(Cl)cc1Cl", "activity, negative = inhibition": "inactive: 7.04%"},
      {"smiles": "COc1ccc(CCNc2oc(-c3ccco3)nc2C#N)cc1", "Potency": "inconclusive [inhibitor, single point]"},
      {"smiles": "CC(C)[C@H](NC(=O)c1ccccc1)C(=O)OCC(=O)c1ccc2c(c1)NC(=O)CO2", "Potency": "active: 1.12 µM"},
      {"smiles": "Cc1ccc(C(=O)O)cc1N1C(=O)CCCC1=O", "activity, negative = inhibition": "inactive: 14%"},
      {"smiles": "c1coc(-c2nnc3sc(-c4cccs4)nn23)c1", "Potency": "active: 20 µM"},
      {"smiles": "C=C[C@@]1(C)CC(=O)[C@@]2(O)[C@@]3(C)[C@@H](O)CCC(C)(C)[C@@H]3[C@H](OC(=O)CCN(C)C)[C@H](OC(C)=O)[C@@]2(C)O1", "Potency": "inconclusive [inhibitor, single point]"},
      {"smiles": "COc1ccc(N2CCN(c3ccc([N+](=O)[O-])cc3Cl)CC2)cc1", "activity, negative = inhibition": "inactive: 4.73%"},
      {"smiles": "COc1ccccc1Nc1nc(N)nc(CSC(=S)N2CC(C)CC(C)C2)n1", "note": "(stereo unspecified)", "Potency": "inconclusive [inhibitor, single point]"},
      {"smiles": "COc1ncnc2c1oc1nc(CC(C)C)c3c(c12)CCCC3", "Potency": "active: 14.1 µM"},
      {"smiles": "O=C(NCCCN1CCOCC1)c1ccc(Sc2cccc(Cl)c2)c([N+](=O)[O-])c1", "activity, negative = inhibition": "inactive: 12.2%"},
      {"smiles": "CS(=O)(=O)N(CC(=O)NCCSCc1ccccc1)c1ccccc1", "Potency": "active: 28.2 µM"},
      {"smiles": "CN(C)S(=O)(=O)c1ccc(Cl)c(C(=O)NCc2ccco2)c1", "Potency": "inconclusive [inhibitor, single point]"},
      {"smiles": "Cc1cccc(N2CCN(Cc3cn(C)nc3-c3ccccc3F)CC2)n1", "activity, negative = inhibition": "inactive: -5.5%"},
      {"smiles": "O/N=C1/CC/C(=N\\O)c2nn(-c3ccccc3)nc21", "activity, negative = inhibition": "inactive: -14.3%"},
      {"smiles": "CCOC(=O)c1cc(-c2ccccc2)sc1NC(=O)c1ccc(OC)cc1", "Potency": "inconclusive [inhibitor, full curve]"},
      {"smiles": "O=C(c1ccc([N+](=O)[O-])cc1)N1CCSC1c1ccc(Cl)cc1", "note": "(stereo unspecified)", "activity, negative = inhibition": "inactive: 12.1%"},
      {"smiles": "Cc1nn(CCC#N)c2nc(-c3ccccc3)cc(C(F)(F)F)c12", "Potency": "inconclusive [inhibitor, partial curve]"},
      {"smiles": "Cc1ccc(NC2=C(N3CCOCC3)C(=O)c3ccccc3C2=O)cc1", "Potency": "inconclusive [inhibitor, full curve]"},
      {"smiles": "O=P(c1ccccc1)(c1ccccc1)c1nc(-c2ccc(Cl)cc2)oc1N1CCOCC1", "Potency": "inconclusive [inhibitor, partial curve]"},
      {"smiles": "CCOC(=O)c1ccc(NC(=O)c2c(NC(=O)CCC(=O)O)sc3c2CCCCC3)cc1", "Potency": "active: 15.8 µM"},
      {"smiles": "O=C(NN1C(=O)C2C(C1=O)C1C=CC2C12CC2)c1ccccc1", "note": "(stereo unspecified)", "activity, negative = inhibition": "inactive: 5.68%"},
      {"smiles": "Cc1[nH]nc2c1C1(CCN(Cc3ccccc3)CC1)C(C#N)=C(N)O2", "Potency": "inconclusive [inhibitor, single point]"},
      {"smiles": "O=C(COc1ccc(Cl)cc1Cl)NC(=S)N1CCCc2ccccc21", "Potency": "active: 7.51 µM"},
      {"smiles": "O=S(=O)(c1ccccc1)N1CCC(O)(CSc2ccc(F)cc2)CC1", "Potency": "inconclusive [inhibitor, single point]"},
      {"smiles": "Cc1cc(/C=C(\\C#N)C(=O)NCc2cccs2)c(C)[nH]1", "Potency": "inconclusive [inhibitor, partial curve]"},
      {"smiles": "CC(C)CC1NC(=O)N(CC(=O)N2c3ccccc3NC(=O)C2(C)C)C1=O", "note": "(stereo unspecified)", "activity, negative = inhibition": "inactive: -5.39%"},
      {"smiles": "COc1ccc(OC)c(NC2=NC3(CCCC3)N=C(N)N2)c1", "activity, negative = inhibition": "inactive: 7.29%"},
      {"smiles": "COC(=O)c1cc(OC)c(OC)cc1NC(=S)N1CCN(C)CC1", "Potency": "inconclusive [inhibitor, partial curve]"},
      {"smiles": "Fc1ccc(COc2cccc(-c3n[nH]c(=S)o3)c2)cc1", "Potency": "inconclusive [inhibitor, partial curve]"},
      {"smiles": "CCCCCCC(=O)NN1CCN(C)CC1", "activity, negative = inhibition": "inactive: 3.56%"},
      {"smiles": "N=C1C(c2ccccc2)=C(O)CN1CCO", "activity, negative = inhibition": "inactive: 6.95%"},
      {"smiles": "CC(Sc1nnc(-c2ccccc2)c(-c2ccccc2)n1)C(=O)N1CCc2ccccc21", "note": "(stereo unspecified)", "Potency": "active: 7.08 µM"},
      {"smiles": "CSCCOC(=O)COc1ccc(/C=N/NC(=O)c2nn(C)cc2Cl)cc1", "activity, negative = inhibition": "inactive: 6.66%"},
      {"smiles": "Cc1ccc(-c2csc(NC(=O)N3CCOCC3)n2)cc1", "activity, negative = inhibition": "inactive: -1.71%"},
      {"smiles": "CCCCC1=CC2=C(c3ccco3)C(=O)C(C)(OC(=O)c3ccc(OC)cc3)C(=O)C2=CN1C1CCCCC1", "note": "(stereo unspecified)", "activity, negative = inhibition": "inactive: 1.33% [at 13.5 µM]"},
      {"smiles": "Cc1ccc(S(=O)(=O)NCc2ccncc2)c(C)c1C", "Potency": "active: 31.6 µM"},
      {"smiles": "Nc1nc(-c2ccccc2)cn1N", "Potency": "inconclusive [inhibitor, partial curve, poor fit]"},
      {"smiles": "COc1cccc(NC(=O)Nc2cccn(Cc3ccc(C)cc3)c2=O)c1", "Potency": "inconclusive [inhibitor, single point]"},
      {"smiles": "Cn1c(=O)cc(OCC(=O)NC2CCCCC2)c2ccccc21", "Potency": "inconclusive [inhibitor, single point]"},
      {"smiles": "COCCn1c(-c2cccs2)csc1=Nc1cccnc1", "Potency": "inconclusive [inhibitor, single point]"},
      {"smiles": "O=C(Cc1ccccc1)Nc1ccc(Br)c(Cl)c1", "Potency": "active: 15.8 µM"},
      {"smiles": "Cc1ccc(OC(=O)c2oc3ccc(F)cc3c2C)c(C)c1", "activity, negative = inhibition": "inactive: -0.851%"},
      {"smiles": "O=C(COC(=O)CCSc1ccc(Cl)cc1)NCc1ccccc1Cl", "activity, negative = inhibition": "inactive: -14.5%"},
      {"smiles": "COc1ccc(C(=O)NCc2ccc(S(N)(=O)=O)cc2)cc1[N+](=O)[O-]", "Potency": "inconclusive [inhibitor, single point]"},
      {"smiles": "COc1cc(C(=O)Nc2cc(-c3cn4cccnc4n3)ccc2C)cc(OC)c1OC", "Potency": "inconclusive [inhibitor, partial curve]"},
      {"smiles": "CCC(C)Nc1nc(Cl)nc(N(C#N)CN2C(=O)c3ccccc3S2(=O)=O)n1", "note": "(stereo unspecified)", "Potency": "active: 12.6 µM"},
      {"smiles": "NNC(=S)Nc1cc(S(=O)(=O)N2CCOCC2)ccc1N1CCOCC1", "activity, negative = inhibition": "inactive: -3.72%"}
    ]}
  ]
}
